The term % Inhibition denotes the relative decrease from the control value, in per cent.

Results on 43 compounds are retold here after ChEMBL document CHEMBL4888484, “Replenishing the malaria drug discovery pipeline: Screening and hit evaluation of the MMV Hit Generation Library 1 (HGL1) against asexual blood stage Plasmodium falciparum ,using a nano luciferase reporter read-out” (2022).

Each structure is given as a SMILES string. In all, about 150,000 compounds went through this assay and about 540 (0.36%) showed an effect of 50% or more. Some of the results follow.

The subject of this assay is Plasmodium falciparum. In words: Primary screen in NF54 nanoGlo assay, in single point, at 2uM, 72h; a lower Z score goes with more inhibition. The class given is functional, Erythrocyte. Particulars: timepoint 72 hour.
Regarding `O=C(CCc1ccc(Cl)c(F)c1)N1C[C@@H]2CS(=O)(=O)C[C@@H]2C1`, the “% Inhibition” value is listed as -9% and the Z score is on record as 1.12.
The like results for `O=C(Cn1nc2n(c1=O)C(=O)N(c1ccccc1)C2)NCc1ccccc1F` were, in that order, -9% and 1.22.
With `COC[C@H](C)NC(=O)Nc1ccc(Cl)cc1Cl`, the “% Inhibition” value was found to be 2% and the Z score was -0.18.
The like results for `Cc1cccnc1CN1CCN(C(=O)CC2CC2)C[C@@H](O)C1` were, in that order, -3% and 0.29.
The matching figures for `CCOC(=O)[C@@]1(C(C)C)CCN(C(=O)c2ncoc2C)C1`: 16% and -2.17.
`O=C(NCC[C@]1(O)CCCOC1)c1cnc2n1CCCCC2`: the “% Inhibition” value is given as -6% and the Z score is given as 0.97.
The matching figures for `CCn1cc(OCc2nc(-c3ccoc3)no2)cn1`: -8% and 1.16.
For the compound `Cn1ccnc(N2CCN(c3cc4c(nn3)CCC4)CC2)c1=O`, the “% Inhibition” value amounted to 19% and the Z score is listed as -2.54.
For the compound `CC(C)(O)C(C)(C)CNC(=O)c1cncc(N2CCOCC2)c1`, the “% Inhibition” value is recorded as -20% and the Z score turned out to be 2.48.
The matching figures for `COc1cccc(-c2nc3c(s2)CN(S(=O)(=O)c2cccc(Cl)c2)CC3)c1`: 0% and -0.01.
The matching figures for `O=C(Nc1ccccc1OCc1cccc(Cl)c1)[C@H]1CC12CCNCC2`: -5% and 0.84.
`COCCN(CC(N)=O)CC(=O)Nc1ccc(C(C)(C)C)cc1`: the “% Inhibition” value is -4% and the Z score is given as 0.46.
For `COc1ccc(NCc2cn(-c3ccccc3)nc2-c2ccc(C)o2)cc1`, the “% Inhibition” value is -16% and the Z score was found to be 1.68.
With `CC(C)=CCN1CCC(NC(=O)C(=O)Nc2cccc(C)c2)CC1`, the “% Inhibition” value is on record as -11% and the Z score turned out to be 1.42.
The matching figures for `CC(=O)c1cnc(NCCc2cccnc2)nc1C`: -14% and 1.82.
The matching figures for `Cc1ccc(NC(=O)NC2CCCC2)cc1NC(=O)NC1CCCC1`: -3% and 0.42.
As for `CN1CCCC[C@@H]1CCNC(=O)c1ccc(N2CCCOCC2)nc1`, the “% Inhibition” value was -23% and the Z score is given as 2.51.
With `O=C(CN1CCN(c2ccccc2F)CC1)NC(C1CC1)C1CC1`, the “% Inhibition” value is recorded as -32% and the Z score was found to be 3.8.
The like results for `O=C(Cn1cc(OCc2ccccc2)c(=O)cc1CO)NCc1ccc2c(c1)OCO2` were, in that order, -4% and 0.56.
Regarding `c1ccc(C2CN(Cc3cnc(-c4cccc5ccccc45)nc3)C2)nc1`, the “% Inhibition” value is recorded as -15% and the Z score is 1.68.
On to `CCS(=O)(=O)c1ccccc1N1CCO[C@H](c2cccs2)C1`, for which the “% Inhibition” value is given as -1% and the Z score came out at 0.19.
The matching figures for `COc1cccc(C2CN(C(=O)c3ccccc3)CC2C(=O)NCC2CC2)c1OC` (stereo unspecified): 31% and -3.12.
With `Cc1csc([C@@H](C)CNC(=O)NCc2ccc(C)s2)n1`, the “% Inhibition” value is listed as -1% and the Z score turned out to be 0.12.
For the compound `CC(C)c1ccc(C(=O)N2CCC3(CC2)C(=O)NCCN3C)c(=O)n1C`, the “% Inhibition” value is on record as -1% and the Z score was found to be 0.15.
Consider `CCNC(=O)Nc1ccc(N(C)C)c(CN(C(=O)C(CC)CC)[C@@H](C)C(C)C)c1`, for which the “% Inhibition” value is reported as -9% and the Z score is 1.27.
On to `COCCCN(Cc1c(C)nn(-c2cccc(F)c2)c1N1CCN(C)CC1)S(=O)(=O)c1ccc2ccccc2c1`, for which the “% Inhibition” value came to 35% and the Z score was -0.78.
The like results for `Cc1c(NC(=O)N2CCS(=O)(=O)CC2)cccc1N1CCCC1` were, in that order, 9% and -1.19.
The matching figures for `CN(CCC1(O)CCCC1)c1ncc(F)cn1`: -12% and 2.35.
The like results for `CCOC1CC(C(=O)Nc2c(C)cnn2[C@H]2CCCc3ccccc32)C1` (stereo partly specified) were, in that order, -4% and 0.76.
Turning to `Cc1cc(C)n2cc(COC(=O)Cn3c(C)cc4ccccc43)nc2n1`, the “% Inhibition” value was 39% and the Z score was -5.22.
The matching figures for `O=C1CCCCC1C1CCCN1S(=O)(=O)C1CC1` (stereo unspecified): -12% and 1.24.
The matching figures for `CCC(=O)N1CCC2(CC1)Nc1ccc(C)c(C)c1-n1cccc12`: 8% and -1.5.
The matching figures for `CCC1COCCN1C(=O)C1C2CCCC21` (stereo unspecified): -3% and 0.25.
Take `COc1cccc(CNC(=O)Nc2cc(C3CC3)nn2[C@H]2CCS(=O)(=O)C2)c1`: the “% Inhibition” value was -12% and the Z score amounted to 1.87.
The like results for `CC(=O)N1c2ccccc2N(Cc2ccc(Cl)c(Cl)c2)C(=O)C1(C)C` were, in that order, 1% and -0.23.
Turning to `OCC1(c2nc(C3CCOCC3)nn2-c2cccc3c2CCC3)CC1`, the “% Inhibition” value was determined as 0% and the Z score was 0.02.
The like results for `O=C(COc1ccc2c(c1)OCO2)Nc1ccc2c(c1)C(=O)Nc1cccnc1O2` were, in that order, 32% and -3.82.
For the compound `O=S(=O)(c1ccccc1)N1CCC2(CC1)Nc1cccnc1N=C2NCc1ccccc1`, the “% Inhibition” value came out at 27% and the Z score is reported as -3.02.
On to `O=C1C[C@H](c2cccc(O)c2)c2cnn(Cc3ccc(Cl)cc3)c2N1`, for which the “% Inhibition” value worked out at 4% and the Z score is on record as -0.47.
The like results for `CC(C)(C#N)c1ccc(-c2ccc3c(c2)OC[C@@H](N2CCCC2)[C@@H]3O)cc1` were, in that order, -10% and 1.93.
Turning to `CC(C)C(=O)N1CCCN(S(=O)(=O)CCc2ccccc2)CC1`, the “% Inhibition” value is listed as -10% and the Z score is given as 1.86.
The matching figures for `Cc1noc(CCCC(=O)N2CCN(c3cccc(C)c3C)CC2)n1`: 2% and -0.31.
Take `Cn1nccc1CCC(=O)NC(c1ccc(F)cc1F)[C@H]1C[C@@H](O)C1` (stereo partly specified): the “% Inhibition” value is reported as 1% and the Z score was -0.09.
